Laboratory results taken from article PMC6919601, “Identification of Plasmodium dipeptidyl aminopeptidase allosteric inhibitors by high throughput screening” (PLoS ONE, 2019).
The campaign covered roughly 110,000 compounds. About 230 (0.21%) showed an effect of 50% or more. This is one part of the list.

target: DPAP1 (Plasmodium falciparum, UniProt Q8IIJ9); assay: primary screen, percent inhibition; read by cleavage of a fluorogenic dipeptide substrate; higher = more effect of the substance; design: species or system P. falciparum D10 trophozoite lysates; single well
Sequence (Q8IIJ9 whole entry, looked up): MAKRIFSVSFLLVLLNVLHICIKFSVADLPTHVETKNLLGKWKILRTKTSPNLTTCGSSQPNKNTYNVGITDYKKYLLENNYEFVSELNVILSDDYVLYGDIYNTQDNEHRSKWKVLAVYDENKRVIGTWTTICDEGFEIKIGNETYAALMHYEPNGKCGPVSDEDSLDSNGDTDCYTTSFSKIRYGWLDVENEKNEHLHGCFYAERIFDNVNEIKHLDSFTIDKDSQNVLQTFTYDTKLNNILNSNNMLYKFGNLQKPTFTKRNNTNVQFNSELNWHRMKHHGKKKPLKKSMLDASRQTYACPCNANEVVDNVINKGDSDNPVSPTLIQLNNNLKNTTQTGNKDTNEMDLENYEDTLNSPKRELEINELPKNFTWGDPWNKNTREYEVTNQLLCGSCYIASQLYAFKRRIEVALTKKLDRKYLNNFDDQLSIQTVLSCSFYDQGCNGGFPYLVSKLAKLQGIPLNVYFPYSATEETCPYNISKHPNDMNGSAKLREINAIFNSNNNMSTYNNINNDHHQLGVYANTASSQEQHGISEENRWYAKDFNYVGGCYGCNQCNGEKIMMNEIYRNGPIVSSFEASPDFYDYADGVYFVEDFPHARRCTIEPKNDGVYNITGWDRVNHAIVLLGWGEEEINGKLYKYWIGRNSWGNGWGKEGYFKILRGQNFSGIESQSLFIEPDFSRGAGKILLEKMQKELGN
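Note: 30 min substrate incubation versus DMSO and 10 µM JCP410 controls.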

| Structure (SMILES) | % Inhibition @ 10 uM [%] |
| --- | --- |
| COc1ccc(C(=O)O)cc1COc1cc(C)ccc1C | 3.17 |
| COc1ccccc1N1C(=O)C2C(c3ccccc3C)OC3(C(=O)c4ccccc4C3=O)C2C1=O (stereo not shown) | 0.247 |
| Cc1ccsc1CNn1cnnc1SCc1ccc(Cl)cc1 | 2.7 |
| CN(C)CCNC(=O)c1nn(C)c2c1CS(=O)(=O)c1ccccc1-2 | -5.37 |
| COc1ccc(-c2cc(C(F)(F)F)n3nc(C(=O)NCc4cn(C)nc4C)c(Cl)c3n2)cc1 | -1.21 |
| N#CCCC12CCCCC1=Nc1ccccc12 (stereo not shown) | -8.22 |
| CCOC(=O)c1cnc2c(Cl)c(Cl)ccc2c1O | 3.01 |
| CC(C)Cc1cc(C(=O)NCc2ccc(F)cc2)no1 | -10 |
| Cc1nc2c3ccccc3nc(SCC(=O)N3CC(C)CC(C)C3)n2n1 (stereo not shown) | -4.75 |
| COc1cccc2c3c(c[n+](C)c12)sc1cc(F)ccc13 | 19.8 |
| CN(C)CCNC(=O)CCCN1C(=O)c2ccccc2C1=O | 1.91 |
| Cc1cc(C)c2c(n1)sc1c(=O)oc(C)nc12 | -0.13 |
| Cc1cc(C(=O)Nc2cccc(C(=O)O)c2)oc1C | 4.88 |
| Cc1c(CNCC(C)c2ccccc2)c(C(=O)O)c(C)n1Cc1c(F)cccc1Cl (stereo not shown) | -7.6 |
| O=C(CN1CCCCC1)Nc1c(Cl)cc(Cl)cc1Cl | 1.02 |
| Cc1cccc(NC(=O)c2ccccc2Cl)c1 | -3.71 |
| O=C(c1nc2ncccn2n1)N1CCc2ccccc2C1 | -1.72 |
| COc1cc(CNC(=O)CSc2nnc(C)c3c(C)n(-c4ccccc4)nc23)cc(OC)c1OC | -2.32 |
| CCCCNC(=O)CCn1ccc2cc(S(=O)(=O)N3CCCC3)ccc21 | 1.11 |
| COc1ccc(CN2CCc3c([nH]c4ccccc34)C2)cc1Br | 0.317 |
| O=C(NC(N1CCOCC1)(C(F)(F)F)C(F)(F)F)c1ccccc1 | -3.69 |
| CN(C)CCN(C)C1CCCCCCC1 | -1.5 |
| COc1ccc(OC)c(C2C3=C(O)CCCC3=NC(C)=C2C(=O)Nc2cccc(C)n2)c1 (stereo not shown) | -2.53 |
| Clc1ccccc1OCCn1cnc2ccccc21 | 0.162 |
| O=C(NCCc1ccccc1)C1c2ccccc2C(=O)N1Cc1ccc(F)cc1 (stereo not shown) | -0.0508 |

| Structure (SMILES) | % Inhibition @ 10 uM [%] |
| --- | --- |
| COc1ccc(N(CC(=O)N2CCCC2)S(=O)(=O)c2ccccc2)cc1OC | 2.42 |
| CCOc1ccc(CNCc2c(C(=O)O)n(Cc3ccccc3F)c3cc(OC)ccc23)cc1OC | -3.46 |
| CCNC(=S)N(CCc1c(C)[nH]c2ccc(OC)cc12)Cc1cccs1 | 4.14 |
| CCCC(C)NC(=O)c1c(-c2ccccc2Cl)noc1C (stereo not shown) | 3.25 |
| O=C(CN(c1cccc(Cl)c1)S(=O)(=O)c1ccccc1)N1CCN(Cc2ccccc2)CC1 | -2.03 |
| CCn1c(C(=O)O)c(CNCCc2ccco2)c2ccc(OC)cc21 | -9.17 |
| CC(C)C(=O)Nc1cccc(C(=O)Nc2ccc(C(=O)O)cc2)c1 | 0.727 |
| Cc1ccc(-n2nc(C)c(/C=N/c3ccc4c5c(cccc35)C(=O)N(C)C4=O)c2O)c(C)c1 | -4.12 |
| CC(C)(C)NC(=O)C(Cc1ccccc1)NS(=O)(=O)c1cccc2nsnc12 (stereo not shown) | 3.63 |
| COc1ccc(-n2c(C)nnc2SCc2nc(-c3ccc(Cl)cc3)no2)cc1 | 2.89 |
| CCOc1cc(Br)c(C(C)NC(C)=O)cc1OCC (stereo not shown) | 3.8 |
| O=S1(=O)CCC(NC2CCS(=O)(=O)C2)C1 (stereo not shown) | -0.239 |
| Cc1ccnc(NS(=O)(=O)c2ccc(NC(=O)C3C4C=CC(C4)C3C(=O)O)cc2)n1 (stereo not shown) | -7.4 |
| COc1ccc(S(=O)Cc2ccc(C(=O)NC(C)C)o2)cc1 (stereo not shown) | -1.86 |
| CCO/C(O)=C1\C(C)=NC2=C(C(=O)CCC2)C1c1ccc(Br)s1 (stereo not shown) | -1.75 |
| O=C(c1ccc(Br)c(S(=O)(=O)N2CCCCC2)c1)N1CCCCC1 | 1.87 |
| COc1ccc(C(=O)Nc2ccc(S(=O)(=O)NC(C)=O)cc2)cc1 | -5.34 |
| O=C(O)CSc1nnc(COc2ccc3c(c2)OCO3)n1-c1ccccc1 | 1.15 |
| O=S1(=O)C=C(N2CCCCC2)CC1 | 2.26 |
| Cc1nc2ccccc2n1S(=O)(=O)c1cccc(Cl)c1Cl | 0.736 |
| COc1ccccc1OCC(=O)O | -3.41 |
| CC1CN/C(=C\C(=O)CCc2ccccc2)C(=O)N1 (stereo not shown) | -4.84 |
| COc1cc(OC)cc(C(=O)NCCC(C)C)c1 | -6.05 |
| O=c1sc2cc(Br)ccc2n1CCO | -4.58 |
